Structures can show the parent of a compound that is named as a salt. ± gives the standard deviation of the averaged measurements. In all, about 1,900 compounds were measured (“normalised cell viability (NPI; 0 = phenylarsine oxide control, 1 = DMSO control)”: median about 1, lowest 2% from about 0.039 on). Some of the results follow.
Tested on: NCI-H1944
Test: normalised cell viability (NPI; 0 = phenylarsine oxide control, 1 = DMSO control) (fraction of DMSO control); NCI-H1944 is a non-small cell lung cancer line; higher = more viable cells (less compound toxicity)
Conditions: 6 days
[1] = glucocorticoid arm: hydrocortisone 2.75 uM co-treatment, compound 1 µM
[2] = glucocorticoid arm: hydrocortisone 2.75 uM co-treatment, compound 5 µM
[3] = glucocorticoid arm: hydrocortisone 2.75 uM pre-treated 2 days and continued, compound 1 µM
[4] = glucocorticoid arm: hydrocortisone 2.75 uM pre-treated 2 days and continued, compound 5 µM
[5] = glucocorticoid arm: vehicle, compound 1 µM
[6] = glucocorticoid arm: vehicle, compound 5 µM
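Further: CTB read-out in 384-well plates, mean of triplicate wells, normalised per plate against 1 µM phenylarsine oxide and 0.1% DMSO, compounds added 24 h after seeding.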

| SMILES | normalised cell viability [1] | normalised cell viability [2] | normalised cell viability [3] | normalised cell viability [4] | normalised cell viability [5] | normalised cell viability [6] |
| --- | --- | --- | --- | --- | --- | --- |
| O=C(CCCCCCC(=O)Nc1ccc([C@H]2O[C@@H](CSc3nc(-c4ccccc4)c(-c4ccccc4)o3)C[C@@H](c3ccc(CO)cc3)O2)cc1)NO [Tubacin] | 0.978 ± 0.0076 | 0.977 ± 0.013 | 0.993 ± 0.017 | 0.981 ± 0.0066 | 0.9873 ± 0.0059 | 0.997 ± 0.013 |
| CC(Cc1ccc(O)c(O)c1)(NN)C(=O)O (stereo not drawn) [S-(-)-Carbidopa] | 0.997 ± 0.013 | 1.01 ± 0.014 | 1.01 ± 0.013 | 1.01 ± 0.015 | 0.992 ± 0.0035 | 0.989 ± 0.004 |
| CCCCCCCCCC(=O)NC(CN1CCOCC1)[C@H](O)c1ccccc1 (mixture of isomers) | 1.01 | 0.9997 ± 0.0096 | 1.02 ± 0.026 | 1.01 ± 0.024 | 1.01 | 0.997 ± 0.014 |
| CN(C)c1ccc(O)c2c1C[C@H]1C[C@H]3[C@H](N(C)C)C(O)=C(C(N)=O)C(=O)[C@@]3(O)C(O)=C1C2=O [Minocycline hydrochloride] | 1.007 ± 0.0058 | 1.02 ± 0.025 | 1.003 ± 0.0061 | 1.05 ± 0.073 | 0.9947 ± 0.005 | 1 ± 0.014 |
| Cc1ccc(S(=O)(=O)NC(=O)NN2CCCCCC2)cc1 [Tolazamide] | 1.007 ± 0.0058 | 1.01 ± 0.01 | 1.01 ± 0.017 | 1.01 ± 0.026 | 1.013 ± 0.0058 | 1.007 ± 0.0058 |
| COc1cc2c(CCNC(C)=O)c[nH]c2cc1Cl [6-Chloromelatonin] | 1.013 ± 0.0058 | 1.01 ± 0.01 | 1.01 ± 0.01 | 1.004 ± 0.0078 | 0.9917 ± 0.006 | 0.99967 ± 0.00058 |
| CCCN(CCc1ccccc1)C1CCc2c(O)cccc2C1 (racemic) [(±)-PPHT hydrochloride] | 0.986 ± 0.011 | 0.969 ± 0.03 | 1.05 ± 0.078 | 0.966 ± 0.02 | 1.007 ± 0.0058 | 1.003 ± 0.0058 |
| C=CCn1c(=O)c2c(nc(-c3ccc(S(=O)(=O)O)cc3)n2C)n(C)c1=O [1-Allyl-3,7-dimethyl-8-p-sulfophenylxanthine] | 0.982 ± 0.0027 | 0.979 ± 0.017 | 0.9887 ± 0.0042 | 0.976 ± 0.0099 | 0.984 ± 0.0027 | 0.9797 ± 0.0086 |
| CCCCCCCCCCCCc1ccc(S(=O)(=O)Nc2nncs2)cc1 | 1.01 ± 0.021 | 1.037 ± 0.0058 | 1.001 ± 0.0085 | 1.03 ± 0.026 | 1.001 ± 0.0078 | 1.01 ± 0.018 |
| c1cncc(CN2CCC(n3ncc4c(N5CCOCC5)nc(-c5ccc6[nH]ccc6c5)nc43)CC2)c1 | 0.773 ± 0.022 | 0.532 ± 0.036 | 0.743 ± 0.027 | 0.615 ± 0.036 | 0.542 ± 0.035 | 0.24 ± 0.0038 |
| COC1CCN(C(=O)c2cc(Cc3n[nH]c(=O)c4ccccc34)ccc2F)CC1 | 1.002 ± 0.0072 | 1.05 ± 0.01 | 1.002 ± 0.0076 | 1.043 ± 0.0058 | 1 ± 0.01 | 0.985 ± 0.0095 |
| Nc1ncnc2c1ncn2C1CCCO1 (stereo not given) | 1.003 ± 0.0058 | 0.993 ± 0.017 | 1.01 ± 0.03 | 1.027 ± 0.0058 | 1.007 ± 0.0058 | 1.01 ± 0.011 |
| Nc1ccn([C@@H]2O[C@H](CO)[C@@H](O)[C@@H]2O)c(=O)n1 | 0.178 ± 0.001 | 0.115 ± 0.0035 | 0.91 ± 0.011 | 0.31 ± 0.04 | 0.0325 ± 0.0032 | 0.0276 ± 0.0059 |
| Nc1ccn([C@@H]2O[C@H](CO)[C@@H](O)[C@@H]2O)c(=O)n1 [Cytosine-1-beta-D-arabinofuranoside hydrochloride] | 0.352 ± 0.026 | 0.163 ± 0.022 | 1.03 ± 0.017 | 0.802 ± 0.22 | 0.0913 ± 0.011 | 0.0638 ± 0.0066 |
| O=C(NCCO)c1ccc2c(c1)nc(Nc1cccc(Cl)c1)c1ccncc12 [CK2 Inhibitor 2] | 1.02 ± 0.022 | 0.854 ± 0.028 | 1.03 ± 0.015 | 1.07 ± 0.021 | 1.001 ± 0.0081 | 0.567 ± 0.033 |
| Cc1[nH]c2ccccc2c1CCNCc1ccc(/C=C/C(=O)NO)cc1 [Panobinostat (LBH589)] | 0.00703 ± 0.0011 | 0.00134 ± 0.00097 | 0.00592 ± 0.0022 | 0.00214 ± 0.0018 | 0.00625 ± 0.001 | 9e-05 ± 0.00045 |
| N[C@@H](Cc1ccc(O)c(I)c1)C(=O)O [3-Iodo-L-tyrosine] | 0.982 ± 0.01 | 0.973 ± 0.035 | 0.991 ± 0.006 | 0.996 ± 0.066 | 0.999 ± 0.011 | 0.998 ± 0.01 |
| Nc1ccc(C(=O)Nc2cccc(-c3nc(N4CCOCC4)c4oc5ncccc5c4n3)c2)cn1 | 0.876 ± 0.029 | 1.02 ± 0.015 | 0.962 ± 0.014 | 0.986 ± 0.012 | 0.377 ± 0.015 | 0.899 ± 0.02 |
| CN(C)CCCN1c2ccccc2Sc2ccc(Cl)cc21 [Chlorpromazine hydrochloride] | 1.01 ± 0.014 | 0.9463 ± 0.005 | 1.006 ± 0.0063 | 1.02 ± 0.033 | 1 ± 0.012 | 0.988 ± 0.011 |
| COc1cc([C@@H]2c3cc4c(cc3[C@@H](O[C@@H]3O[C@@H]5CO[C@@H](c6cccs6)O[C@H]5[C@H](O)[C@H]3O)[C@H]3COC(=O)[C@H]23)OCO4)cc(OC)c1O [Teniposide] | 0.707 ± 0.048 | 0.162 ± 0.012 | 0.976 ± 0.0096 | 0.613 ± 0.0069 | 0.271 ± 0.0049 | 0.0406 ± 0.0044 |
| O=C1NC(=O)/C(=C/c2ccc3c(c2)OC(F)(F)O3)S1 | 0.985 ± 0.015 | 1.01 ± 0.022 | 0.9957 ± 0.0059 | 1.002 ± 0.0068 | 0.9993 ± 0.0011 | 1 ± 0.0087 |
| CCCCOc1cc(CC2CNC(=O)N2)ccc1OC (stereo not given) | 1.01 ± 0.01 | 1.01 ± 0.021 | 1.01 ± 0.011 | 1.01 ± 0.021 | 1.013 ± 0.0058 | 1.013 ± 0.0058 |
| CC(C)Cn1c(=O)n(C)c(=O)c2[nH]cnc21 [3-Isobutyl-1-methylxanthine] | 1.003 ± 0.0061 | 1.01 ± 0.019 | 0.9957 ± 0.004 | 1.03 ± 0.094 | 0.99 ± 0.01 | 0.993 ± 0.015 |
| CC(C)c1ccc2c(c1)c(SC(C)(C)C)c(CC(C)(C)C(=O)O)n2Cc1ccc(Cl)cc1 [MK-886 sodium hydrate] | 0.9957 ± 0.0029 | 0.977 ± 0.03 | 1.002 ± 0.0068 | 1 ± 0.07 | 0.9823 ± 0.0029 | 1.002 ± 0.0067 |
| Cc1cc(Nc2nc(N[C@@H](C)c3ccc(F)cc3)c(C#N)cc2F)n[nH]1 | 0.665 ± 0.045 | 0.582 ± 0.043 | 0.808 ± 0.035 | 0.713 ± 0.047 | 0.342 ± 0.075 | 0.191 ± 0.026 |
